Laboratory results taken from PubChem BioAssay AID686971 (National Center for Advancing Translational Sciences (NCATS), 2013).
Values joined by “and” are separate entries in the source; they are usually repeats but may differ in a detail not shown here. Equal entries are not always repeated. Among all 360,000 compounds or so, about 7,500 (2.1%) were called active. Inconclusive results, whose numbers are uncertain, are shown with a selection of clear calls. The call rests on the fitted dose curve; in most records, active means well fitted cell-killing curve with a large enough effect; inconclusive means small, poorly fitted or top-dose-only effect, or effect the other way, or another doubt; inactive means no such curve, though single readings can be large or run the other way. Where the call is inconclusive, the potency comes from a doubtful curve fit.

Test: qHTS for induction of synthetic lethality in tumor cells producing 2HG: qHTS for the HT-1080-IDH1KD cell line;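 on activity, negative = toxicity: 0% = DMSO wells and -100% = cell-free medium wells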
Conditions: HT-1080 IDH1 knockdown viability, ATP luminescence, 48 h; activity, negative = toxicity: at 46.1 µM (top of the series) unless noted
In short: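 Using the IDH1-knockdown HT-1080 line run in the same batch and compound series as the NT line, viability after 48 h at 37 °C was determined by CellTiter-Glo luminescence and expressed as % activity.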
Potency means the concentration at half of the fitted maximal effect; tags describe the fitted curve by direction and shape.

**Q.** Which Potency does the source give for `NC(=O)c1ccccc1NC(=O)CSc1nc2c(c(=O)[nH]1)CCCC2` here?
**A.** The Potency was active: 16.4 µM.

**Q.** For `O=C(CCl)N=c1sccn1Cc1cccc2ccccc12`, which Potency is on record?
**A.** The Potency was active: 18.4 µM.

**Q.** For `N#CCSc1nc2c(c(=O)n1Cc1ccco1)C1(CCCC1)Cc1ccccc1-2`, which Potency is on record?
**A.** Its Potency is inconclusive: 18.4 µM [cytotoxic, single point].

**Q.** With `COc1cccc(-c2csc(N3CCN(C(=O)Nc4ccc(F)cc4)CC3)n2)c1` as the molecule, how does the Potency read?
**A.** The Potency was inconclusive: 23.1 µM [cytotoxic, single point].

**Q.** For `Cc1ccc(C2CC(c3cccs3)=NN2C(=O)c2ccco2)o1` (centres undefined), which Potency is on record?
**A.** The Potency was inconclusive: 13 µM [cytotoxic, partial curve, poor fit].

**Q.** Which “activity, negative = toxicity” value does the source give for `COc1ccc(-n2cc(CN(C)C(C)c3ccncn3)c(-c3cccc(F)c3)n2)cc1` (centres undefined) here?
**A.** The value was inactive: -21.3%.

**Q.** For `COc1ccc(N2C(=O)NC3CC2(C)Oc2ccccc23)cc1OC` (centres undefined), which Potency is on record?
**A.** The Potency was inconclusive: 29.1 µM [cytotoxic, single point].

**Q.** For `O=C(NC1CCCC1)C(c1cccnc1)N(Cc1ccccc1F)C(=O)c1csnn1` (centres undefined), which “activity, negative = toxicity” value is on record?
**A.** Its value is inactive: 1.44%.

**Q.** With `CCn1ncc(CN2CCC(C(=O)Nc3cccc(-c4cccc(F)c4)c3)CC2)c1C` as the molecule, how does the activity, negative = toxicity read?
**A.** Its activity, negative = toxicity is inconclusive: -6.84% [cytotoxic].

**Q.** Which “activity, negative = toxicity” value does the source give for `CN1C(=O)S/C(=C\c2ccccc2OCc2ccc(C(=O)O)cc2)C1=O` here?
**A.** Its value is inactive: -3.08%.

**Q.** For `O=C(CNC(=O)OCc1ccccc1)NC1CCCCCC1`, which “activity, negative = toxicity” value is on record?
**A.** The value was inactive: 3.74%.

**Q.** Which Potency does the source give for `COc1ccccc1-n1c(-c2ccccc2)n[nH]c1=S` here?
**A.** The Potency was active: 2.59 µM.

**Q.** For `COc1ccc(CCNC(=O)c2cc(-c3ccc(C)cc3O)n[nH]2)cc1OC`, which Potency is on record?
**A.** Its Potency is inconclusive: 20.6 µM [cytotoxic, single point].

**Q.** With `Oc1ccccc1C=NNC(=S)NN=Cc1ccccc1O` as the molecule, how does the Potency read?
**A.** The Potency was inconclusive: 9.2 µM [cytotoxic, partial curve].

**Q.** With `Cc1cc(NC(=O)c2ccc(OCC3CCCO3)cc2)ccc1Br` (centres undefined) as the molecule, how does the Potency read?
**A.** The Potency was inconclusive: 16.4 µM [cytotoxic, single point].

**Q.** With `N#Cc1cc2c(nc1SCc1ccncc1)CCC2` as the molecule, how does the Potency read?
**A.** The Potency was inconclusive: 17.8 µM [cytotoxic, single point].

**Q.** Which Potency does the source give for `Cc1ccc(S(=O)(=O)Nc2ccc3c(c2)nc(CCN2CCCC2)n3C)cc1` here?
**A.** The Potency was inconclusive: 29.1 µM [cytotoxic, single point].

**Q.** With `CCN(Cc1ccccc1)C(=O)C1CCN(Cc2sccc2C)CC1` as the molecule, how does the “activity, negative = toxicity” value read?
**A.** Its value is inactive: 8.94%.

**Q.** For `CC1(Cc2cc(Cl)ccc2C(F)(F)F)C(=O)Nc2cc(F)ccc21` (centres undefined), which Potency is on record?
**A.** Its Potency is inconclusive: 25.9 µM [cytotoxic, single point].

**Q.** With `COc1ccc(/C=C2\SC(=O)N(CC(=O)NNC(=O)c3ccccc3O)C2=O)cc1` as the molecule, how does the Potency read?
**A.** Its Potency is inconclusive: 18.4 µM [cytotoxic, single point].

**Q.** Which Potency does the source give for `Fc1ccc2nc(Nc3nc4c(F)cccc4s3)sc2c1` here?
**A.** Its Potency is inconclusive: 29.1 µM [cytotoxic, single point].

**Q.** Which Potency does the source give for `COc1ccc(Sc2ccc(NC(=O)c3ccccc3Cl)cc2C#N)cc1` here?
**A.** The Potency was inconclusive: 16.4 µM [cytotoxic, single point].

**Q.** With `Cc1ccc(S(=O)(=O)c2cn(C)c3cc(N4CCN(C)CC4)c(F)cc3c2=O)c(C)c1` as the molecule, how does the Potency read?
**A.** The Potency was inconclusive: 25.9 µM [cytotoxic, single point].

**Q.** For `CCOC(=O)c1nc(NNC(=O)c2ccc([N+](=O)[O-])cc2)sc1C`, which Potency is on record?
**A.** The Potency was active: 7.31 µM.

**Q.** Which Potency does the source give for `O=C(Nc1ncc(Cc2ccc(SC(F)F)cc2)s1)c1ccccc1` here?
**A.** The Potency was active: 6.51 µM.

**Q.** For `CCCn1c(SCC(=O)NC)nc2sc3c(c2c1=O)CCC3`, which “activity, negative = toxicity” value is on record?
**A.** Its value is inactive: -10.7%.

**Q.** Which Potency does the source give for `Cc1cc(Nc2nc3ccccc3nc2Cl)n(-c2ccccc2)n1` here?
**A.** The Potency was active: 12.6 µM.

**Q.** Which “activity, negative = toxicity” value does the source give for `COC(=O)c1cc2c(=O)n3ccccc3nc2n(Cc2cccnc2)c1=N` here?
**A.** Its value is inactive: 9.19%.

**Q.** Which Potency does the source give for `O=C(Nc1ccccc1Cl)N1CCCN(c2nc(-c3ccccc3)ns2)CC1` here?
**A.** Its Potency is inconclusive: 20.6 µM [cytotoxic, single point].

**Q.** With `COc1ccc(-c2cc(C(=O)Nc3cc(OC)cc(C(=O)Nc4cccc(C(F)(F)F)c4)c3)[nH]n2)cc1` as the molecule, how does the Potency read?
**A.** The Potency was inconclusive: 23.1 µM [cytotoxic, single point] and inconclusive: 9.2 µM [cytotoxic, partial curve].

**Q.** For `Cc1[nH]c2ccccc2c1C(=O)C(C)OC(=O)c1ccc([N+](=O)[O-])o1` (centres undefined), which Potency is on record?
**A.** Its Potency is inconclusive: 29.1 µM [cytotoxic, single point].

**Q.** For `O=C1C2C3C=CC(CO)(O3)C2C(=O)N1c1ccccc1-c1ccccc1` (centres undefined), which Potency is on record?
**A.** The Potency was active: 1.58 µM.

**Q.** For `CC[C@]12c3[nH]c4ccc(OC)cc4c3CCN1C(=O)C(CC(=O)NCC13CC4CC(CC(C4)C1)C3)C[C@@H]2C(=O)N1CCN(C(=O)c2ccco2)CC1` (some centres undefined), which Potency is on record?
**A.** Its Potency is inconclusive: 18.4 µM [cytotoxic, single point].

**Q.** For `Cc1ccc(-n2c(Cc3cccn3C)nnc2SCC(=O)Nc2nnc(C)s2)cc1`, which Potency is on record?
**A.** The Potency was inconclusive: 22.4 µM [cytotoxic, single point].

**Q.** With `COc1ccc(C(O)c2nc(-c3cc(F)cc(Cl)c3)cs2)cc1` (centres undefined) as the molecule, how does the Potency read?
**A.** The Potency was inconclusive: 29.1 µM [cytotoxic, single point].

**Q.** With `COC(=O)C1CC(O)CN1C(=O)NC1CCCCC1` (centres undefined) as the molecule, how does the “activity, negative = toxicity” value read?
**A.** Its value is inactive: 1.85%.

**Q.** With `Cc1noc(C)c1COc1ccc(C(=O)NNC(=O)c2ccccc2O)cc1` as the molecule, how does the Potency read?
**A.** Its Potency is inconclusive: 32.6 µM [cytotoxic, single point].

**Q.** For `COc1ccc(NC2CCCN(C(=O)c3cc4ncccn4n3)C2)cc1` (centres undefined), which “activity, negative = toxicity” value is on record?
**A.** The value was inactive: 5.63%.

**Q.** Which activity, negative = toxicity does the source give for `CCN(CC)S(=O)(=O)c1ccc(OC)c(NC(=O)Cn2cnc3c2c(=O)n(C)c(=O)n3C)c1` here?
**A.** The activity, negative = toxicity was inconclusive: -8.04% [cytotoxic].

**Q.** With `Cc1nn(-c2ccccc2)c(C)c1/C=N/NC(=O)c1cc(-c2cccc3ccccc23)n[nH]1` as the molecule, how does the Potency read?
**A.** Its Potency is inconclusive: 18.4 µM [cytotoxic, partial curve].

**Q.** With `CCC(NC(=S)NCc1ccc(F)cc1)c1ccc(C(C)C)cc1` (centres undefined) as the molecule, how does the Potency read?
**A.** Its Potency is inconclusive: 29.1 µM [cytotoxic, single point].

**Q.** With `COc1ccc(C2(O)CCN(CC(=O)Nc3nc(-c4ccccc4)cs3)CC2)cc1` as the molecule, how does the Potency read?
**A.** The Potency was inconclusive: 18.4 µM [cytotoxic, single point].

**Q.** Which “activity, negative = toxicity” value does the source give for `CCC1COCCS(=O)(=O)N1Cc1cccc(Cl)c1` (centres undefined) here?
**A.** The value was inactive: 10.2%.

**Q.** With `CCOc1ccc(N=Nc2c(=O)[nH]n3c(=O)cc(C)[nH]c23)cc1` as the molecule, how does the Potency read?
**A.** Its Potency is inconclusive: 13 µM [cytotoxic, partial curve].
